PubChem BioAssay AID588855 (National Center for Advancing Translational Sciences (NCATS), 2011)
Out of some 410,000 compounds screened, about 5,000 (1.2%) were called active. The shares of active, inactive and inconclusive entries below differ from those in the screen. Calls follow the shape of the dose curve; as a rule, active = well fitted inhibition curve with a large enough effect; inconclusive = small, poorly fitted or top-dose-only effect; inactive = no such curve, though single readings can be large or run the other way. Potencies beside an inconclusive call are fits to weak or partial responses and may not hold up.

Test: qHTS for Inhibitors of TGF-b; also: nearly all actives have a fitted effect of over 65% in size
Settings: HepG2 CAGA-GFP TGF-b/SMAD3 reporter, GFP fluorescence, 18 h, TGF-beta stimulated, 500 pg/mL final; series mostly up to 46.1 µM
Procedure, shortened: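 Smad-responsive CAGA-GFP expression was quantified in HEPG2 cells exposed to compounds and 500 pg/mL final TGF-beta for 18 h at 37 degrees C; unstimulated wells defined full inhibition.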
Potency is read from the fitted curve at half-maximal effect; tags tell the direction and shape of the fitted curve.

| Compound | Potency |
| --- | --- |
| COCCn1c(SCC(=O)N2CCCCC2)nc2c(c1=O)SCC2 | inconclusive: 15.8 µM [inhibitor, partial curve] |
| Cc1[nH]c2ccccc2c1C(=O)CN1C(=O)NC(C)(c2ccc(Cl)cc2Cl)C1=O (configuration not stated) | inconclusive: 15.8 µM [inhibitor, single point] |
| COCCNC(=O)c1oc2ccc3c(c2c1C)C(O)CC(C)(C)O3 (configuration not stated) | inactive |
| COc1ccc(OC)c(S(=O)(=O)NCC(c2cccs2)S(=O)(=O)c2ccc(F)cc2)c1 (configuration not stated) | inconclusive: 11.2 µM [inhibitor, single point] |
| COC(=O)[C@@]1(Cc2ccccc2)[C@H]2C(=O)N(Cc3ccccc3)C(=O)[C@H]2[C@H]2CN=C(SCC(=O)c3ccccc3)N21 | inconclusive: 11.2 µM [inhibitor, partial curve, poor fit] |
| COC(=O)c1cc(NC(=O)C(C)c2ccc(CC(C)C)cc2)ccc1O (configuration not stated) | inconclusive: 35.5 µM [inhibitor, single point] |
| CCN1CCN(c2ccc(S(=O)(=O)N3CCCCC3)cc2NC(=O)c2cc3ccccc3o2)CC1 | inactive |
| COc1ccc(NC(=O)C2(C)CCN2Cc2ccc3ccccc3c2)cc1OC (configuration not stated) | inconclusive: 25.1 µM [inhibitor, single point] |
| Cc1cc(NC(=O)CS(=O)(=O)c2cn(Cc3cccc(F)c3)c3ccccc23)no1 | inactive |
| CCN1C(=O)[C@H]2[C@@H](c3ccc(-c4cc(C(C)=O)cs4)cc3)N3CCCC[C@@]3(C(=O)OC)[C@H]2C1=O | inconclusive: 3.16 µM [inhibitor, partial curve] |
| COc1ccccc1CNC(=O)c1ccc2c(=O)n(CC3CCCO3)c(=S)[nH]c2c1 (configuration not stated) | inactive |
| COc1ccc(C(C)(C)C)cc1NC(=O)CNc1cccc2ccccc12 | inconclusive: 12.6 µM [inhibitor, single point] |
| COc1ccc(Cn2c(C(=O)O)c(CNCc3ccc(SC)cc3)c3ccc(OC)cc32)cc1 | inconclusive: 12.6 µM [inhibitor, partial curve, poor fit] |
| O=C(COc1ccccc1F)Nc1ccc(S(=O)(=O)NCc2ccco2)cc1 | inactive |
| Nc1sc(-c2ccccc2)cc1C(=O)N/N=C/c1ccc(Cl)cc1 | inconclusive: 35.5 µM [inhibitor, single point] |
| CCn1c(=N)n(CC(=O)c2ccc(Cl)c(Cl)c2)c2ccccc21 | inconclusive: 22.4 µM [inhibitor, single point] |
| CCC(C)NC(=O)c1sc2nc(C)c(C(=O)Nc3ccc(C)cc3C)c(-c3ccc(NC(C)=O)cc3)c2c1N (configuration not stated) | inactive |
